# From ChEMBL document CHEMBL4888484, “Replenishing the malaria drug discovery pipeline: Screening and hit evaluation of the MMV Hit Generation Library 1 (HGL1) against asexual blood stage Plasmodium falciparum ,using a nano luciferase reporter read-out” (2022)
# Screen size: about 150,000 compounds; about 540 (0.36%) showed an effect of 50% or more. The list shows a part of the results.
# Tested on: Plasmodium falciparum
# Test: Primary screen in NF54 nanoGlo assay, in single point, at 2uM, 72h; a lower Z score goes with more inhibition
# Assay type: functional, Erythrocyte
# Conditions: timepoint 72 hour
Structure (SMILES),% Inhibition [%],Z score
Cc1nc2ncccn2c1C(=O)NC(Cc1ccccn1)[C@H]1C[C@H](O)C1 (stereo partly drawn),-12,1.42
O=C(N[C@H]1CCN(Cc2ccsc2)C[C@@H]1O)c1cccnc1,-6,1.06
CN(c1ccc(C(=O)O)cn1)[C@H](CO)Cc1ccccc1,1,-0.19
CCCc1cc(=O)[nH]c(N/C(=N/C(=O)[C@H](CC)c2ccccc2)Nc2ccc(F)cc2)n1,5,-0.65
Cc1ncc(C(=O)NS(=O)(=O)c2c(C)nn(C)c2C)s1,-3,0.33
Cc1cc(C)cc(C2(C(=O)Nc3cccc(-n4c(C)c[nH]c4=O)c3)CCC2)c1,-6,0.81
O=C(CC1(N2Cc3ccccc3C2=O)CCOCC1)NC1CCCCCCC1,-9,1.31
Cc1cc(=O)c(C(=O)N2C[C@@H]3CC[C@H]2CN(C(=O)c2ccncc2)C3)c[nH]1,-6,0.71
N[C@@H](C(=O)O)c1ccc(F)c(Cl)c1,-7,1.11
Cc1n[nH]c2c1CN(C(=O)c1ccc3c(c1)OCC(=O)N3)CC2,0,0.06
O=C(C[C@@H]1NC(=O)N(C2CCCCC2)C1=O)NCCc1c[nH]c2ccccc12,8,-0.81
Cc1ccnc(N2CC[C@H](c3ccccc3C(=O)O)C2)n1,-7,0.82
COCc1ccc(C(=O)N2CCO[C@@H](Cc3ccccc3Cl)C2)o1,-9,1.65
O=C(NCc1ccccc1)c1cn(C[C@@H]2CC(F)(F)CN2C(=O)CCn2cccn2)nn1,32,-3.61
CN(Cc1csc(-c2ccccc2)n1)C(=O)C[C@H]1C(=O)N(C)C(=O)N1C,-3,0.47
Cc1ccnc(NCCc2nc(-c3cccnc3)n[nH]2)n1,4,-0.64
N#Cc1ccsc1NC(=O)c1nc(C2CC2)n(-c2ccccc2)n1,2,-0.34
O=C(c1c(F)cccc1Cl)N(CC(F)(F)F)C1CCOCC1,-10,1.12
CCOCCC(=O)NCCc1ncnn1C,-3,0.36
CN1CCN(C(=O)c2coc(Br)c2)c2ccccc2C1,-13,2.05
O=C(Nc1cccnc1-n1cccn1)c1ccc2ncsc2c1,7,-0.92

Structure (SMILES),% Inhibition [%],Z score
Cn1cc(Cl)cc1C(=O)NC[C@H]1CC[C@H](CO)CC1,2,-0.3
COc1ccc(Br)c(CN(C)C(=O)Cc2ccncc2)c1,1,-0.11
Cc1cc(Br)c2c3c(nc(-c4ccccc4)nc13)-c1ccccc1C2=O,-1,0.26
O=C(Cn1nc(C2CC2)n(-c2ccccc2)c1=O)N1CCC(Cc2ccccc2)CC1,6,-0.65
O=C1NC(=O)C2(CCN(C(=O)c3cc(Cc4ccccc4)ccc3O)CC2)N1,-3,0.41
COc1ccc(CCC(=O)N(Cc2ccco2)C2CCOCC2)cc1,-7,1.09
O=C(c1cc(-c2ccc(Cl)s2)nc2ccccc12)N1CCN(Cc2ccc3c(c2)OCO3)CC1,-8,0.7
O=c1[nH]c2ccccc2n1C1=NCCN1,-36,4.25
COc1ccc(C)cc1NC(=O)CN1CCC[C@@H]1CN1CCCC1,32,-3.3
C[C@H](c1cnccn1)c1noc(C2(c3cccc(OC(F)(F)F)c3)CCC2)n1,3,-0.29
Cc1cnc(CN[C@@H](C)c2cccc(NC(=O)c3ccccc3)c2)o1,0,0
CCOC(=O)c1cc(-c2ccc(F)cc2)n(C2CCN(C(=O)c3cccc(C)c3)CC2)n1,-12,1.65
CN(C)C[C@@H](O)CNc1ccc2cc(Cl)ccc2n1,-7,0.88
c1ccc2c(N3CCC[C@H](c4nccn4CC4CC4)C3)ccnc2c1,-3,0.41
Cc1nnc(NC[C@@H](O)CCc2ccccc2)c(C#N)c1C,-8,1.26
N#Cc1cnn(C(=O)COc2ccc(-c3ccccc3)cc2Cl)c1N,-2,0.22
CCN(Cc1ccc2[nH]ccc2c1)S(=O)(=O)CC1CCOCC1,-14,1.52
Fc1ccc([C@@H](NCc2nnc3ccccn23)c2ccccc2)nc1,-19,2.06
CCCc1noc(-c2ccc3nnc(CC(=O)Nc4ccc(Cl)cc4)n3c2)n1,-11,1.72
Cc1ccc(-c2nc(Cc3ccc4c(c3)OCO4)n(C(C)(C)C)n2)nn1,-3,0.45
O=C(c1cc(C(F)(F)F)ccc1Cl)N1CC[C@H](N2CCC(O)CC2)[C@@H](O)C1,6,-0.76

Structure (SMILES),% Inhibition [%],Z score
Cc1csc(CN2CCC(NC(=O)N3CCOCC3)CC2)n1,11,-1.33
O=C(Nc1ccns1)N[C@@H]1c2ccccc2CC[C@@H]1O,-6,1.24
Cc1ccc(CN2CCC(F)(C(=O)N3CCOCC3)CC2)o1,-9,1.21
COc1ccc(NC(=O)Cn2c(N3CCCCC3)nc(C)cc2=O)cc1OC,-4,0.41
Cc1cccc(S(=O)(=O)N[C@H]2C[C@H](c3cc(N4CCCC4)ncn3)C2)c1,-9,1.46
CCC(=O)N1C[C@H](NC(=O)OC(C)(C)C)[C@@H](c2cccc(F)c2)C1,14,-1.64
COC(=O)c1ccc(C[N+]2(Cc3ccc(C(=O)OC)cc3)CCCC2)cc1,3,-0.51
CO[C@H]1C[C@H]2CN(Cc3cc(C)nn3C)[C@@H](Cc3ccccc3)C(=O)N2C1,-7,0.96
CCc1nc(NC(=O)N2CCC(F)(F)[C@@H](CO)C2)sc1C,-10,1.81
O=C(c1cc(-c2ccccc2)n[nH]1)N1CCCCCC1,-3,0.5
Cc1noc(C(F)(F)F)c1C(=O)NC[C@@H](c1cccs1)N1CCC(C)CC1,2,-0.27
Cc1nnc(CN2CCC(CC(=O)N3CCCC3)CC2)s1,-3,0.48
Fc1ccccc1-c1noc(-c2cncnc2N2CCc3ccccc32)n1,0,-0.07
c1cncc(-c2n[nH]cc2CNC[C@H]2COc3ccccc3O2)c1,6,-1.18
Cc1noc([C@@H](NCC2CCCC2)C(C)C)n1,-1,0.12
COc1ccsc1C(=O)N(C)C1CCN(Cc2ccncc2)CC1,-13,1.14
O=S(=O)(c1ccc2c(c1)OCCO2)N1CCC[C@H](c2nc3ccccc3s2)C1,-4,0.62
Clc1ccc([C@@H]2c3cccn3CCCN2Cc2cccc(Oc3ccccc3)c2)cc1Cl,-1,0.11
CN(C)[C@H]1CCN(Cc2nc(-c3ccncc3)nn2CC(F)(F)F)C1,-11,1.52
COc1ccc(-c2cc(-c3ccccn3)nc(N)c2C#N)cc1C,10,-1.84
CCCn1c(C(=O)NCCOC)cc2cc(NC(=O)c3ccccc3Cl)ccc21,10,-1.24

Structure (SMILES),% Inhibition [%],Z score
CCOC(=O)Nc1ccc(Cl)cn1,2,-0.33
CN(c1cccnn1)S(=O)(=O)c1ccc(Br)c(F)c1,5,-0.74
O=C(c1n[nH]c2ccccc12)N1C[C@@H]2CC[C@H]1CN(Cc1ccncc1)C2,-23,1.99
c1ccc2oc(-c3nnc4n3CCCC[C@H]4C3CCOCC3)cc2c1,-10,1.63
COc1ncccc1-c1nc(C)nc(O)c1Cl,-8,1.5
CC1CCCC(OCc2nnc(-c3nnc(-c4ccccc4)o3)o2)C1 (stereo not drawn),-16,1.57
Cc1c(Cl)ccc2c(C(=O)Nc3cccc4ccccc34)cc(-c3cccs3)nc12,2,-0.24
Cc1c(C(=O)NCCCN2CCOCC2)nnn1-c1ccc2ncccc2c1,9,-0.89
NC1(c2ccc(Cl)cc2)Cc2ccccc2C1,-13,1.7
CCCCS(=O)(=O)N(C)C(=O)Cc1c(C)nn(C)c1C,-11,1.13
COc1ccc(Nc2nc(C)c(NC(=O)c3cccs3)c(Nc3ccc(OC)cc3)n2)cc1,-8,1.66
Cc1cc(C)nc(NC[C@H]2CCCO2)n1,-5,0.64
COc1cnc(NC(=O)N2Cc3ccccc3NC(=O)[C@@H]2C)s1,-5,0.72
Cc1ccccc1C(=O)Nc1sc2c(c1C(=O)N1CCN(Cc3ccccc3)CC1)CC[C@H](C)C2,0,-0.03
C=Cc1cccc(-c2nccn2CCCN2CCC(C(N)=O)CC2)c1,-7,0.82
c1ccc(-c2cn[nH]c2C2CCN(c3ncnc4[nH]cnc34)CC2)cc1,-15,1.53
CN(CC(N)=O)C[C@H]1CN(c2ncnc3nc(N)ccc23)CCO1,-23,2.82
O=C(NCc1ccsc1)Nc1cccs1,-5,0.72
O=C(Nc1cccnc1C1CC1)c1csnn1,-5,0.84
O=C(N[C@@H](Cc1cccc(F)c1)c1cccc(F)c1)c1ccc(=O)[nH]n1,7,-0.94
NC(=O)C1CCN(C(=O)Nc2ccc3c(c2)OCCO3)CC1,-10,1.57
